Assay results published in PubChem BioAssay AID720708 (National Center for Advancing Translational Sciences (NCATS), 2013).
The campaign covered roughly 360,000 compounds. About 660 (0.18%) were called active. This list was built around the results that the source calls inconclusive (neither active nor inactive); the mix of calls is not that of the screen. Calls follow the shape of the dose curve; as a rule, active = well fitted inhibition curve with a large enough effect; inconclusive = small, poorly fitted or top-dose-only effect; inactive = no such curve, though single readings can be large or run the other way. No potency is given beside an inconclusive call; the fits are too rough.

Each molecule was assayed against Rap guanine nucleotide exchange factor 4 (Homo sapiens) (UniProt Q8WZA2) (assay: qHTS for Antagonist of cAMP-regulated guanine nucleotide exchange factor 2 (EPAC2): primary screen). Conditions: EPAC2 GEF exchange of Rap1B-BODIPY-GDP, fluorescence; activity, negative = inhibition: at 114 µM (top of the series) unless noted.
% is scaled to controls: 0 for no effect and ±100 for the full control effect; potency is read from the fitted curve at half-maximal effect; tags tell the direction and shape of the fitted curve.
Also: nearly all actives have a fitted effect of over 45% in size.

Sequence of UniProt Q8WZA2 (Q8WZA2 whole entry, looked up): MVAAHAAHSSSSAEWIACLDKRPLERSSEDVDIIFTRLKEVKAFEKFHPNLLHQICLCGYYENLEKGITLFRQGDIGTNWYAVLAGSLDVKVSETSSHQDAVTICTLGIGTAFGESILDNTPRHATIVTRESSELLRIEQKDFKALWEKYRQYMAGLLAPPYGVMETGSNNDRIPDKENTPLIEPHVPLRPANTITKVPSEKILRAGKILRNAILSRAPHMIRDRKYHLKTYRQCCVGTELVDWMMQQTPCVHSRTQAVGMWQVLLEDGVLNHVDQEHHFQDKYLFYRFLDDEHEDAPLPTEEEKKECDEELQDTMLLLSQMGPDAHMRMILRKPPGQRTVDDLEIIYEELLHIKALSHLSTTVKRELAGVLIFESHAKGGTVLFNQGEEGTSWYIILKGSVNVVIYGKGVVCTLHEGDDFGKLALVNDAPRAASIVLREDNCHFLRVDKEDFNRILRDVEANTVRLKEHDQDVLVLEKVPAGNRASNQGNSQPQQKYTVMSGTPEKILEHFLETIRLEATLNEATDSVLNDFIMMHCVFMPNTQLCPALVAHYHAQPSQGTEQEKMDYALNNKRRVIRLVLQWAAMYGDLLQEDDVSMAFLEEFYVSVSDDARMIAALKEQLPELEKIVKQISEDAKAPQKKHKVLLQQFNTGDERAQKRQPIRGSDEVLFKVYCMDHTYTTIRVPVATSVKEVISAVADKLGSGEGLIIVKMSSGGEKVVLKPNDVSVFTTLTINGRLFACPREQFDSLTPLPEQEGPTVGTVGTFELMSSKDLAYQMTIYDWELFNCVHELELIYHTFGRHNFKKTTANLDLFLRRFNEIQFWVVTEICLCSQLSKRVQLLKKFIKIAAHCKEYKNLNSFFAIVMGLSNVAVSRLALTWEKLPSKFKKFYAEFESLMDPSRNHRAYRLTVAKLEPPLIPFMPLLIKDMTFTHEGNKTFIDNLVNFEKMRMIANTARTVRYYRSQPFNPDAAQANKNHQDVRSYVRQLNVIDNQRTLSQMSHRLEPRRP

SMILES | activity, negative = inhibition | Potency
COc1cccc(CN2CCc3ccc(NC(=O)CCc4ccc(C)cc4)cc3C2)c1O | inactive: 0.892% | –
Cn1c(-c2ccccc2)c(Sc2ccccc2)c2cc(-c3ccc4cc[nH]c4c3)ccc21 | inactive: 7.49% | –
CC(Oc1ccc(Br)cc1)C(=O)NCc1ccccn1 (configuration not stated) | – | inconclusive [inhibitor, single point]
O=C(/C=C/c1ccc(F)cc1)NCCCN1CCN(CCCNC(=O)/C=C/c2ccc(F)cc2)CC1 | inactive: 1.44% | –
CN(C)C(=O)c1ccc2c(c1)C1C3CCC(C3)C1C(c1ccccc1)N2 (configuration not stated) | – | inconclusive [inhibitor, single point]
COC1=NC(=C(c2ccccc2)c2ccccc2)OC1=O | – | inconclusive [inhibitor, partial curve, poor fit]
COC1=C(Nc2ccccc2OC)C(=O)c2ccccc2C1=O | – | inconclusive [inhibitor, partial curve]
COc1cc([C@@H]2c3cc4c(cc3[C@@H](O)[C@H]3COC(=O)[C@H]23)OCO4)cc(OC)c1O[Si](C)(C)C(C)(C)C | – | inconclusive [inhibitor, full curve, poor fit]
O=c1oc2ccccc2cc1NCc1ccccc1O | – | inconclusive [inhibitor, partial curve]
O=C(Nc1ccon1)c1ccc(N2CCCCC2)c([N+](=O)[O-])c1 | inactive: 1.93% | –
O=C(CSc1nnc(SCc2ccccc2Cl)s1)N/N=C/c1ccc(C(=O)O)cc1 | – | inconclusive [inhibitor, full curve]
Cc1nn(-c2ccccc2)c(C)c1/C=C/C(=O)OCC(=O)Nc1ccc(S(N)(=O)=O)cc1 | inactive: -3.13% | –
Cc1ccc2nc(SCC(=O)Nc3ccc4c(c3)OCCO4)[nH]c2c1 | inactive: -3.21% | –
CC(C)(C)CC(C)(C)NC(=S)Nc1ccc2nc(-c3ccccn3)c(-c3ccccn3)nc2c1 | inactive: -4.76% | –
Cc1cc(C(=O)Nc2cc(C(C)(C)C)on2)c(C)o1 | inactive: -18.3% | –
C/C(=N\Nc1cc(C(F)(F)F)ccc1Cl)c1ccncc1 | – | inconclusive [inhibitor, partial curve]
CC1(Cc2cccc(C(F)(F)F)c2)C(=O)Nc2c(Cl)cccc21 (configuration not stated) | – | inconclusive [inhibitor, full curve]
O=C(Nc1ccccc1)c1ccccc1NS(=O)(=O)c1ccc(Cl)s1 | – | inconclusive [inhibitor, partial curve]
CCOc1cc(/C=C/c2cc(C(F)(F)F)[nH]c(=O)n2)ccc1O | – | inconclusive [inhibitor, single point]
CCOC(=O)c1ccc(NC(=O)CS(=O)(=O)c2cn(CC)c3ccccc23)cc1 | – | inconclusive [inhibitor, partial curve]
CCc1c(C)sc(NC(=O)CN2CCN(C(=O)c3ccco3)CC2)c1C(=O)OC | – | inconclusive [inhibitor, partial curve]
CC(C)(C(=O)N1CCC1(C)C(=O)NS(=O)(=O)c1ccccc1Cl)c1ccccc1 (configuration not stated) | – | inconclusive [inhibitor, partial curve, poor fit]
O=C1c2cccc3cccc(c23)N1Cc1cccc(F)c1 | – | inconclusive [inhibitor, full curve]

SMILES | activity, negative = inhibition | Potency
CCc1cccc(NC(=O)COC(=O)CSc2ccc(C)cc2)c1 | – | inconclusive [inhibitor, full curve, poor fit]
COc1cccc(-c2cc(C(F)(F)F)nc(-n3cc(Cl)cn3)n2)c1 | – | inconclusive [inhibitor, partial curve]
CCN(C(=O)C1CCN(c2nc(-c3ccc(OC)cc3)no2)CC1)c1ccc(OC)cc1 | – | inconclusive [inhibitor, partial curve]
COC(=O)Nc1ccc(OCc2ccccc2)cc1 | inactive: 9.58% | –
CN1OC[C@@H]2CN(Cc3ccc(Cl)cc3)[C@H](c3cccc(Br)c3)C[C@@H]21 | – | inconclusive [inhibitor, partial curve]
O=C(c1nc2ccccc2[nH]1)c1ccccc1[N+](=O)[O-] | – | inconclusive [inhibitor, partial curve]
O=C(N/N=C/c1cc(Cl)cc([N+](=O)[O-])c1O)C1CC1 | inactive: -14.5% | –
CC(=O)CSc1nc(-c2ccccc2)c(-c2ccccc2)o1 | – | inconclusive [inhibitor, partial curve]
O=C(NCC(c1ccc(F)cc1)N1CCOCC1)c1ccc(C(=O)c2ccccc2)cc1 (configuration not stated) | – | inconclusive [inhibitor, partial curve]
N/C(=N\OC(=O)C12CC3CC(CC(C3)C1)C2)c1ccncc1 | inactive: -8.16% | –
CCc1nnc(NC(=O)CSc2nnc(CNC(=O)c3cc(OC)c(OC)c(OC)c3)o2)s1 | – | inconclusive [inhibitor, full curve, poor fit]
CC(=O)c1ccc2c(c1)N(Cc1ccccc1Cl)C(=O)C(C)S2 (configuration not stated) | – | inconclusive [inhibitor, single point]
CCOC(=O)c1ccc(NC(=O)c2c(N)n(Cc3ccccc3)c(=O)[nH]c2=O)cc1 | – | inconclusive [inhibitor, single point]
COc1ccccc1CC(=O)Nc1ccc(S(=O)(=O)N2CCOCC2)cc1 | – | inconclusive [inhibitor, single point]
Cc1cccc(NC(=O)CSCC(=O)N(C)CCOc2ccc(Cl)cc2)c1 | inactive: -6.72% | –
CCn1c(SC)nnc1-c1sc2cc(Cl)ccc2c1Cl | – | inconclusive [inhibitor, single point]
O=C(Nc1ccccc1Cl)C1C(c2ccccc2)C1(Cl)Cl (configuration not stated) | inactive: 0.433% | –
COc1ccc(-c2cc(C(F)(F)F)nc(NC3CCCC3)n2)cc1OC | – | inconclusive [inhibitor, partial curve, poor fit]
O=C1NC[C@H](Cc2ccc(O)cc2)N(C[C@@H]2CCCN2C[C@H](Cc2ccc(O)cc2)N2C[C@H](Cc3ccccc3)N(CC3CCCCCC3)C(=O)C2=O)C1=O | – | inconclusive [inhibitor, partial curve]
COc1cc(SC)ccc1C(=O)NC1CCCc2ccccc21 (configuration not stated) | – | inconclusive [inhibitor, full curve]
Nc1nnc(SCC(=O)OCC(=O)Nc2ccc(Br)cc2)s1 | inactive: 0.0927% | –
COc1ccccc1/C=C1\SC(=S)N(C(C(=O)O)c2ccccc2)C1=O (configuration not stated) | – | inconclusive [inhibitor, partial curve]
O=C(NCc1ccco1)c1c[nH]c2ccc(S(=O)(=O)N3CCOCC3)cc2c1=O | – | inconclusive [inhibitor, single point]

SMILES | activity, negative = inhibition | Potency
N#Cc1c(N(CCO)CCO)nc(N)c2c(N)nc3c(c12)CC(=O)N3Cc1cccs1 | – | inconclusive [inhibitor, partial curve]
O=C(Nc1cccc(N=Cc2cc(Cl)cc(Br)c2O)c1)c1ccco1 | – | inconclusive [inhibitor, partial curve]
O=C(CC1NCCNC1=O)Nc1ccccc1 (configuration not stated) | inactive: -0.415% | –
O=C1C(=Cc2ccco2)CCC1=Cc1ccco1 | inactive: -2.98% | –
C=CCOC(=O)C1=C(C)NC(C)=C(C(=O)OCC=C)C1c1cccs1 | – | inconclusive [inhibitor, partial curve]
Cc1ccc(C)c(NC(=O)c2cc3ccccc3o2)c1 | – | inconclusive [inhibitor, full curve, poor fit]
Cc1ccc(-c2cc(C(F)(F)F)nn2-c2ccc(S(N)(=O)=O)cc2)cc1 | – | inconclusive [inhibitor, full curve]
CC(c1nc2ccccc2[nH]1)n1c(=O)c(-c2ccco2)nc2ccccc21 (configuration not stated) | inactive: 2.92% | –
COC(=O)C1=C(C)N(c2ccc(OC)cc2)C(C)=C(C(=O)OC)C1c1ccccc1 | – | inconclusive [inhibitor, full curve]
CC(C)N(Cc1nc(-c2ccccc2)no1)C(=O)c1ccc(Cl)cc1 | – | inconclusive [inhibitor, partial curve]
CN(C)c1oc(-c2ccccc2[N+](=O)[O-])nc1C#N | inactive: 10.3% | –
CN(C)c1ncc(CN2CCC(CO)(CCCc3ccccc3)CC2)s1 | inactive: 2.59% | –
C[C@H]1CCC(=O)N([C@H](COc2ccccc2)Cc2ccccc2)CC1 | – | inconclusive [inhibitor, partial curve]
Oc1cc2ccccc2cc1-c1n[nH]c(=S)o1 | inactive: -6.49% | –
CCCCCCC[C@@H](C/C=C/CCC(=O)N(C)C/C(=C/Cl)C/C(=C\C(=O)N1C[C@H](O)CC1=O)OC)OC | – | inconclusive [inhibitor, partial curve]
Cc1ccc(OC/C(=N\O)C(C)(C)C)c([N+](=O)[O-])c1 | – | inconclusive [inhibitor, partial curve, poor fit]
COc1cccc(-c2nnc(-c3ccc(C(F)(F)F)cc3)o2)c1 | inactive: 3.2% | –
CCOc1ccccc1NC(=O)C(OC(=O)C1CC1)c1ccccc1 (configuration not stated) | – | inconclusive [inhibitor, partial curve]
CC(C)C[C@H](NC(=O)c1nc[nH]c1C(=O)NCCCCCNC(=O)OC(C)(C)C)C(=O)OCc1ccccc1 | – | inconclusive [inhibitor, partial curve]
N/C(=N\OC(=O)Cc1ccccc1[N+](=O)[O-])c1cccc(Br)c1 | – | inconclusive [inhibitor, full curve, poor fit]
C/C(=N\Nc1ccc(C(=O)O)cc1)c1ccc(Cl)s1 | – | inconclusive [inhibitor, partial curve]
